Some of the results follow.
Test system: PfSIP2 AP2 domain 1 (GST-tagged)
Experiment: gcPBM binding intensity (ln(normalized median fluorescence intensity)); higher = stronger DNA binding
In short: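 The binding buffer was 1× PBS containing 1% milk, 0.2 mg/ml BSA, 0.5% salmon testes DNA and 0.03% Triton X-100. In it, GST-tagged P. falciparum DNA-binding domains expressed in E. coli were applied for 1 h to an Agilent 4 × 180k array of primer-extended double-stranded 36-bp intergenic genomic probes plus negative controls. Binding intensity, read with Alexa488 anti-GST antibody and a 488 nm scan, is the highest Masliner-normalised natural-log median intensity across replicate spots of either probe orientation.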

Sequence | gcPBM binding intensity (ln)
AACTTTTTACAAACAGGTACGCATATATATATATAT [XGTACX_site5081] | 8.9
AATAATTATTTGTATAGTACAATATACAAAAGATGA [XGTACX_site4312] | 7.07
CACATACACATACAAACACACATTATATATATATAT [CACACA_site8460] | 9.36
CATCCATTATTAATATGTACATATGTATATATATTA [XGTACX_site1318] | 7.16
GAAAAAAAAAAAAGGGGTACATTTATTTTATCAATA [XGTACX_site8331] | 6.76
TTTTTTTTTTTTTTTTTTTTTTTCTTTATTTTTTTT [CACACA_negctrl_site703] | 6.83
AAAATTAATAAATAAACACACATATTTATATTTATA [CACACA_site7266] | 6.74
TATAAATATAGACACACACACACACCGAAGCGTAGC [CACACA_site6180] | 6.8
TCGTCACTTTAATATTGTACATATATATATATATAT [XGTACX_site8046] | 9.7
ATATATATATGTGCCAGTACACATGTATACATTATA [XGTACX_site3899] | 8.67
GATATATATATTCACACACACATGGAAATATATATA [CACACA_site382] | 7
ACAGAAAAAAGACACACACACATAATATACATACAT [CACACA_site6991] | 7.37
ATTTTTTAAATGAGGCGTACACAAAAATATAATTAC [XGTACX_site7087] | 7.6
CTTAGATATAAAAATTGTACATACATATTTTTGACA [XGTACX_site2107] | 7.03
TATATATATATATATACACACACACTAATAAAAAAA [CACACA_site8426] | 9.24
TTTTTTTCGTAAAAAAAAATAATTATTAAATGAAGG [TGCATGCA_negctrl_site212] | 7.09
TAAACACCCATATAAACACACATATAAACACCCATA [CACACA_site5382] | 7.06
TTTATTTATTTTTAACGTACGCACACATATAAATAT [XGTACX_site4042] | 7.54
TATTATAAAATATACACATGCAAAAACAAAATTTAC [TGCATGCA_site1051] | 7.26
TATTTTTAATAAAAACGTACGGAATACAAAAAAAAT [XGTACX_site3477] | 7.38
TATATACATTGGTATACATGCATTCTCTTTCATACA [TGCATGCA_site734] | 6.88
TAAAATTTATAAACTACACACATATAAATAGTAATA [CACACA_site7708] | 6.81

Sequence | gcPBM binding intensity (ln)
TTAAACATATATTAAGCACACACAAACAAAAAAACA [CACACA_site8816] | 7.3
AACATATTTTTTTGTTGTACTTACAATTATAAGCAT [XGTACX_site3056] | 6.9
TATACCAAATATATGGGTACACAAATATGTTTATTC [XGTACX_site8932] | 6.9
TAATTAATCGATTTACGCACATGAACAAAAGCACAT [CACACA_negctrl_site1287] | 7.09
TATAAAGCAACTGAAACACACAAATTTTTTTTTTTT [CACACA_site3218] | 6.76
ACTATTTTCTTCAAAACATGCACCACATAAACATAA [TGCATGCA_site200] | 10.5
ATTATTTATTTATGTGTGCGCATGTGTGTAAATATT | 8.85
GTAAATATTAATAAAAGTACATATGTAGCATATGGA [XGTACX_site5219] | 7.09
CCTTTTTTATTTACAACACACGTAAAGGTTCAAATA [CACACA_site1741] | 7.39
AGAAAAAAAAAAAATGCACACATTTTCATTGTCAGT [CACACA_site1935] | 7
ATATATATATATATGTGTACATATTTTTTTTTTTTT [XGTACX_site3425] | 9.26
AAAAAACACAGACATACACACAAAAAGGTTATAAAT [CACACA_site4222] | 6.91
CATATCTCTTATTAATGTACATTTTTAAAAGTAAAT [XGTACX_site2847] | 7.15
CTTTTTTTTATGAACAGTACAGAAATATATATATAC [XGTACX_site5613] | 7.13
TTTATATAATGGAAAAGTACTCAGGAAATTTATACA [XGTACX_site3635] | 7.3
CAAGAACAAAAAATATGTACATATAATTATATATAT [XGTACX_site2082] | 7.75
TTAAAATTAAAAATAGGTACACATATGAACAAGGAC [XGTACX_site1180] | 7.82
TTATATGATATATGACGTACATATTAATAACATCTA [XGTACX_site6716] | 7.2
TGTAATATTTTATAAAGTACATTATAATATAATTCA [XGTACX_site2961] | 6.97
TTGTTCCAATAAAATCGTACAATTAAACAACCAAAC [XGTACX_site5759] | 7.28
TTTTTTTCTATAATACACCAGAAAAAAAAATTAAAA [TGCATGCA_negctrl_site257] | 6.96
AGATTGAAATATAGTTGTACAAATATTTTAAAACAT [XGTACX_site3026] | 7.08

Sequence | gcPBM binding intensity (ln)
CAATCAACAAAACATACACACACATATATATATATA [CACACA_site8979] | 9.32
TAATTATAAAAATAAAACAACCAAATTTGTTATATA [CACACA_negctrl_site750] | 6.78
TAATTTATAAATAATTGTACATAGTTTATTTAGATT [XGTACX_site4599] | 6.86
ATATATATAAAATAAAGTACCCGTAAAACCTATATG [XGTACX_site6937] | 7.36
AAAAAAAAAAAAAAAAAATAATAAAAAATAAAAAAA [GTGCAC_negctrl_site341] | 7.55
GACGACTATATTAATTGTACTCAATTTAAGCATAAT [XGTACX_site2750] | 7.1
TATGTTAATCCTATTTGTACATATAATCGAATTAAA [XGTACX_site7090] | 6.92
GAAAGGAAAAGTTGAACACACAAAGTAAACTATAAG [CACACA_site3535] | 6.7
TAATGAAGATATATAACACACAAAAGTTATAAATAT [CACACA_site6678] | 6.95
ATATATAATAATATATGTACATAATATTTTTTTTTT [XGTACX_site1941] | 6.98
GCCATTAATTTATACACACACATTAAAATTTTTTAT [CACACA_site4575] | 7.58
GCTATAAATACAGACGCACACATATACATACATATA [CACACA_site3329] | 7.56
TATCCTACATTAACAAGTACAAAGAGATCCTACGTA [XGTACX_site4252] | 6.83
AAGAATATATAGGACACACATACAATAATAAATATA [CACACA_site4119] | 7.25
AACGCCACTTCAATGGCACACACCAATTATTTTTCA [CACACA_site1026] | 6.81
TTTCTCCATATTAAAGTGCATTAATAACAAAAATAA [GTGCAC_site9934] | 8.82
TCATTCGAATAAATTGCACACATGACATCCGTTGTA [CACACA_site2587] | 6.99
ATATATATATTAATTACACACAAAAAAAAAAAAAAA [CACACA_site1165] | 8.31
AAAAAAAAAAAAAATATACACACTAATATATTTTTT [CACACA_site815] | 7.18
GTATAGAGAAAAAACTGTACTTTATATAAATATTTA [XGTACX_site3972] | 6.85
TATATACAGATATATACACACATATTTATATTTTAT [CACACA_site7734] | 6.98
TATTAATAATATAATAGTACTTTCACTGTAAATTTA [XGTACX_site6419] | 6.75

Sequence | gcPBM binding intensity (ln)
TATTCTAATATTTATACACACATAACTTTGATAAAT [CACACA_site6418] | 7.08
TATATATAGCATATTTCACACACACCGAATGAATAT [CACACA_site9182] | 7.19
ATTAATTATTGTAATTGTACATTTTATATATATCCA [XGTACX_site2105] | 6.93
TTTCTTGGGAGACATGCATGTACCAGAACAAAATAA [TGCATGCA_site272] | 7.23
TTTATTTTTATGGTCACACATATTTTTAAAACTATA [CACACA_site4372] | 7.22
TACAAAATAGTTTACACACACATATATATACATATA [CACACA_site2615] | 6.97
CACCCATAGAAACACACACACGCATAAAAAAAAAAA [CACACA_site1513] | 7.33
TAAAAACAAAAATGCACACATAATAAGCATATGTAT [CACACA_site3469] | 7.11
AACAGGTCATAATTTACACACTATATATCTTATTAT [CACACA_site6461] | 7.13
TTCATAAGAAGGAACTGTACATATTTTTCATTTTTT [XGTACX_site6770] | 6.97
TGTATACCTTAATATACACACATACAGATATATATA [CACACA_site4860] | 7.21
CGATTTTTTTTTTATTGTACTTGCTCGCATGCAATA [XGTACX_site4727] | 6.91
TTATATGTATATATATGTATATATATATATATATAG [TGCATGCA_negctrl_site461] | 7.57
TACAATCTTTCATTATGTACTTAACATTTTTTCTGT [XGTACX_site8752] | 7.04
ATATGCATTTTTATACGTACATATTTCTTTTCGTTA [XGTACX_site1497] | 7.34
ACAAAAGGGGAATACACACACATATATAAATAAATA [CACACA_site7111] | 7.11
CATATTTTTATGAGATGTACAATAAGAAATATGTAA [XGTACX_site2389] | 7.19
TTATCCTTGTAACAATGTACACATTATTTAATACTT [XGTACX_site1830] | 7.12
TCGTGAATGATTTAAGTACACACCGGTATTTATTCA [CACACA_site1564] | 6.74
GCATAAACGGATAATTAATTATATTATATTATATCA [CACACA_negctrl_site1519] | 6.9
ATTTATTTATATATATTATTTGTTTTAATTTACTTA [XGTACX_negctrl_site246] | 6.96
TATTGTTGTCTTTACACATGCAACAAAAGAAGAAAA [TGCATGCA_site911] | 7.15
